{"source": "patent US11707062B2", "about": "“Formulation of stearyl alcohol” (PRO FARM GROUP, INC., priority 2017, dated 2023)", "test_system": "almond", "assay": "Almond orchard field trial, yield", "settings": "trees treated three times with 6 ml/L", "data": [{"smiles": "CCCCCCCCCCCCCCCCCCO", "note": "[stearyl alcohol]", "values": [{"measurement": "yield higher than Surround or untreated", "result": "around 15%"}]}]}
